According to the supplement of paper PMC10126150:
Values marked as one replicate rest on one cluster of the flow cell; about a third of the high ones do not repeat.

Tested on: ATP
Experiment: switch fluorescence ratio, 500 uM ATP over buffer (Cy3 cluster intensity, sum of 5 cycles each) (fold (ratio)); higher = stronger signal-on switching upon ATP binding; sequences stand for … in TCGTCGGCAGCGTCAGATGTGTATAAGAGACAGTTTTTTTTTTTTTTTTTTTTTTTTT…TC
Details: aptamer strand: ATP DNA aptamer (quencher-CACCTGGGGGAGTATTGCGGAGGAAGG + anchor), 100 nM annealed; ATP concentration: 500 uM; one replicate
In short: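 Exposure to 500 uM ATP lasted 15 min at 22 °C before imaging, and a selection-buffer image was taken beforehand, for Cy3-labelled switching-strand clusters on a modified Illumina MiSeq flow-cell annealed to 100 nM quencher-labelled ATP aptamer. Five buffer/ATP cycles were run with NaOH stripping and re-annealing between them. The fluorescence ratio per cluster is summed target-cycle over summed buffer-cycle Cy3 intensity, averaged per switch-domain sequence. Clusters outside 100-1000 RFU were excluded.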

Sequence	switch fluorescence ratio
CAGTGACTTC	1.03
ACTTCGCCCA	1.45
TCCATAGTA	1.04
TGATTGCCCC	0.99
AATGCAGTA	0.981
GGTACAAGGG	0.976
TCATGAGGAT	1.01
CACCGTTCCT	2.73
TAATAAGTCC	0.987
CGTACCTGTT	0.993
GGGCTGTATT	0.993
GACATGGAGT	0.976
TCCGGTATTG	1.01
GGATGGGCAT	0.989
TGGATATTT	1.01
TATTGGT	0.992
AAGAGGACAG	1.06
TGCGATAGTT	1.01
ATCGTAGTGC	1.05
GATTGCTTAG	1.02
CGATTTACCC	1.04
CATGCTAGGA	0.943
CTGTATTCGG	1.02

Sequence	switch fluorescence ratio
GAGAATATGC	1.05
GAATGTAACG	0.972
CCACGGTTGT	0.98
TATTATTACA	1.07
TTGCACGCA	1.08
ACGAAGTGGT	1.02
CACAATCAGC	1.05
GCAGATGAAG	0.959
ATCGCTCCGC	1.61
CGGGTGCGCC	1.04
TGAATTGGGT	0.985
CGTACAGGTC	0.994
TCTTGAGAGG	0.986
GGACCAAGCA	1.04
TCAGGTCGCT	0.99
GCTATTCAAA	0.992
CACGTTTGAA	1
TCATGTCACT	1.05
CCGGGCGAAC	1.64
TTGTCAGGAG	0.975
GTTTGTGAAA	0.939
ATGTTAGCCG	0.997
TGGATCCTAG	0.973

Sequence	switch fluorescence ratio
TTTAGGTAGC	1.03
AAATGATGAT	1.02
CATACAGTCG	1.05
TGTACCCAGA	1.08
GAAGGATTGC	0.997
GGTGCTGGT	1.01
TATAATCCGC	0.994
CGTTTTACGG	0.974
CGCCGCACTG	2.84
CACAGGGCAC	1.03
ATAGCTGGTG	1.01
GTGAGGAGTC	0.976
ACACGCCCGC	1.19
ACCATTCGTC	1.01
TTTTCATGAC	1.04
CATTTTGGAC	0.999
CTTTACGACT	0.991
TGAGTTCCTC	1
AATACTGGGT	1.08
CAATTATGGA	0.988
ACCCGGCCAT	1.06
AATCAGCTGG	1.05
CTGGATGGAC	1.05

Sequence	switch fluorescence ratio
GTCGTAATAT	1.49
CGGTGTATGA	0.975
GAATTTCCTC	1.25
TGAAACCGTG	1.09
TGGTTTACCG	1
GCCTGGTGGC	0.995
TTTGGGTACG	1.02
GCTGCCGGTT	0.992
CCAGTAGCTA	1.31
GGAATCATCT	0.959
GCTTAACTTT	1.06
CCAAGTCAAT	3.16
GCATATATCG	0.97
ACACGGGAGT	0.976
TGGTGTAGG	1.03
CGCAGCAGGC	2.5
TTCATTAGAA	0.993
ATTCTTCTTG	0.931
ACGGTCGCGC	0.969
TTGTGAGCAC	1.05
CTGGAGACGT	1.05
CCCAGATAAG	1.08
AGCATTCTTT	1.01

Sequence	switch fluorescence ratio
GTAAGCGTAG	0.965
CATCGTATCT	1.03
GGTGTATCG	0.994
CGCTAATTGC	2.14
AACGCCCCTA	1.04
ACGTATTGTA	1.05
TTGAAAAGGA	0.963
CGTGTGTAAT	0.978
TGTTGGTCCA	0.987
CATGGCACCA	0.997
TTTGAAGATA	1.02
CTGGTTCCGC	1.93
TTGAGTGAGT	0.973
GCGTTGGGAA	0.953
TGAGGGTGAA	0.948
TCGGCGCCGA	1.06
AAGGTTTTA	0.988
CGTCTATGCC	1
TAACTGTACA	1.39
CAAATCCAGC	0.979
CCGAGCGCTG	4.52
CTGCGTCGGC	1.06
CGACGTTCTC	1.57

Sequence	switch fluorescence ratio
TAGAGGTTCA	1
ATGGCCAGC	0.881
CGGGTACGGC	0.997
TGGATCAGGG	1.03
GAGTCCACAT	1.27
AAGCTACTGT	1.09
ATGGGTTAAC	1.05
TTAATATGGG	0.997
GGAATCCTAT	1.02
AAACAAGTCT	1
CCTAGGCACC	2.23
TAGCTATGTA	1.01
AAGCGAAAGT	1.01
GTTGCGGGCA	1
GTGTTAAGCA	0.988
AATTATTGTG	0.964
GTGCCGGAGT	1.02
GACGAATCGT	0.967
CACGCGGTTT	1.02
GATTGTTGTT	1.02
CATATGACAG	0.936
TCTTGGGAA	1.03
TTTGTTCTTG	0.958

Sequence	switch fluorescence ratio
CTCGATTATT	0.995
AGGGTCTGGT	0.976
ATGCAATTAA	1.09
AACTTTATTC	1.05
ACAAGGTGAG	0.966
AGAGAAGAGT	0.998
TGACCCTCTG	0.918
GGGAGGTCGT	1.01
GGGTCTAAAC	0.969
TGCTCGATC	1.14
TTTGGGTGAA	1.03
AGGGTAACTA	0.996
CATTTACGTT	1.29
ACTGATCGGC	1.07
GAAGGTTCGG	0.983
GCCTGAATAC	2.78
AGTGCGTACG	0.995
TCGACCACTC	1.5
GAAGGTAGTG	0.95
